This note sets out measurements from the RNAGym collection of RNA variant scans (doi:10.7554/elife.90254).

To fix the notation:
B1: LINE1-mini (parent)
chain: GGCAGAGCUCAACACAGCGUGGCAAAGUGGCUGUGGCUAGACUGCC

The source gives no read counts; variants with many changes may rest on few reads.

Variants of B1 are the subject of the data set. Put plainly: self-cleavage, relative activity (ratio to wild type); higher = more cleavage; in vitro, sequencing; the parent is a self-cleaving ribozyme.
Regarding GGCAGACCACAACACAGGGUGGCAAAGUGGCUGUGGCUAGACUGCC, the self-cleavage was determined as 0.02. With GGCAGAUCUCAGCACUGCGUGGCAGUGUGGCUGCGGCUAGACUGCC, the self-cleavage amounted to 0.01.

As to GGCAGAUUUCCACACAGCGUGGCAAACUGGCUGUGGCUAGACUGCU, the self-cleavage stood at 0.03. Under GGCAGAUCUCCACACAGCGUGGCAAAGUGGCUGUGGGUAGACUGCC stands 0.01; under GGCAGAUCUGAACACAGCGUGGCACAGUGGCUGUGGCUAGACUGCC, 0.02; under GGCAGAUCUCAACACGGCGUGACAAAGUGGCUGUGGCUAGAUUGCA, 0.04. GGCAGACCACAACACAGCGUGGCAUAGUGGCUGUGGCUAGACAACC: the self-cleavage was 0.1. Turning to GGCAGAUCUCAACACAGCGUGGCGAGGUGGCUGUGGGUAGACCGCC, the self-cleavage turned out to be 0.01. In the case of GGCAGAUCUCCACACGGCAUGGCAGAUUGGCUGUGGCUUGACUGCC, the self-cleavage came out at 0.

For GGCAGAUCUAAACACAGCGUUGCCAAGUGGCUGUGGCUAGACUGCC, the self-cleavage was determined as 0.01. For the variant GGCAGAUCUCAACACAGCGUGGCAACGUGGGUGUGGCUAGACUGCC, the self-cleavage was 0.01. Turning to GGCAGAUCUCAGCACAGCGUGGCAAAGUGGUUGUGGCUAGACCGCC, the self-cleavage stood at 0. Take GGCAGAUCUCAUCACAGCGUGGCAAAAUGGCUGUGGCUUGACCGCC: the self-cleavage was found to be 0.07. As to GGCAGACCUCAACACAGCGCGGCAAAGUGGCUGUGGAUAGACUGCC, the self-cleavage came out at 0.01. In the case of GGCAGACCCUAACACAGCGUGGCAAAGUGGCUGUGGCUAGACUGCC, the self-cleavage was determined as 0.02. As for GGCAGAUCUAAACACAGCGUGGCAAAGUGGCUGUGGCUAGACCGCC, the figure is 0.04; as for GGCAGAUCUCAACACAGCGUGGCAAUGUGGCUGUGGCGAGACUGCC, 0. As for GGCAGAUAUCAACACAGCGUGGCAAAGUGGCUGUGGCUAGAUUGCC, the figure is 0.03.

For GGCAGACCUCAACACAGCGAGGCAAAGUGGCUGCGGCUAGACUACC, the self-cleavage was found to be 0.04. As for GGCAGAUCUCAGUACAGCGUGGCAAAGUGGCUGUGGCUAGAUUGCC, the self-cleavage stood at 0.01. Turning to GGCAGACCUCAACACAGCGUGGCAAAGUGCCUGUGUCUAGACUGCC, the self-cleavage came to 0.08. In the case of GGCAGAUUUCAACACAGCGUGGCAAAGUAGUUGUGGCUAGACUGUC, the self-cleavage was 0.08. Consider GGCAGAUCUCAACACUGCGUGGCAAAGUGACUGUGGCUAGACUGCC, for which the self-cleavage was 0.17. As for GGCAGACCACAACACAGCGUAGCAAAGUGGAUAUGGCUCGAUUGCC, the figure is 0.09.

Regarding GGCAGAUCUCAUCACAGCGUGUCAAAGUGGAUGUGGCUAAACUGCC, the self-cleavage came out at 0.04. As for GGCAGAUCUCAACACGGCGUGGCAAAGUGGUUGUGGCUAGACUGCC, the figure is 0.03; as for GGCAGACCUCAACACAGCGGGGCAAAGUGGCUGUGGCUAGACUGCA, 0.08. GGCAGACCUCAACACAGCGUGGCAAAGUGGCUGAGGCUUGACUGCC: the self-cleavage was determined as 0. As to GGCAGAUAUCAGCACAGCGUGGCAAAGUGGCUGUGGCUAGACUGCG, the self-cleavage was 0.06.

Regarding GGCAGAUAUCAACACAGCGUAGCAAAGUGGCCGUGGCUAGACUGCC, the self-cleavage is 0.15.

On to GGCAGAUUUCAACACAGCGCGGAAAAGUGGCUGUGGCUAGACUGCC, for which the self-cleavage was 0.07. As for GGCAGAUCUCAUCACAGCGUGGCAAAGUGGCAGUGGCUAGACUGCC, the self-cleavage is 0.03.

GGCAGACCACAACAAAGCUUGGCAAAGUGGAUGUGGCUAGCCUGCC: the self-cleavage came to 0. GGCAGAUCUAAACACAGCGUGGCAAAGUUGCUGUUGCUAAACUGCC: the self-cleavage worked out at 0.01.

For GGCAGAUCUCACCUCAGCGUGGCAAAGUGGCUGUGGGUACGCUGCC, the self-cleavage is 0.01.

Turning to GGCAGACCUCAACACAGCGUGGCAAAGUGGCUGUUGCUAGACUGAC, the self-cleavage came out at 0.1. For GGCAGACCUCAACACAGCGUGGCAAAAUGGCUGUGUCUAGACUGCC, the self-cleavage amounted to 0.06. On to GGCAGACCUCAACACAGCGUGGCAAAGAGGAUGUGAUUAUACUGCC, for which the self-cleavage was 0.01. Take GGCAGAUAUCAACACAGCGUGGCAAAGUGGCUGUGGCUAGACUACC: the self-cleavage was found to be 0.48. Under GGCAGACCUCAACACAGCGUGGCAAAGUUGCUGUGGCUAGACUGCA stands 0.22. For the variant GGCAGACCGCAACACAGCGUGGCAAAGUUGCUGUGGCUAGACUGCC, the self-cleavage was determined as 0.13. Take GGCAGAUCUCAACACGGCGUGGCAAAGUGGCUGUGGGUAGACUGCC: the self-cleavage worked out at 0.03.

For the variant GGCAGAUCUCAACACGGCAUGGCAAAGUGGGUGUAGCUAGACUGCC, the self-cleavage is 0.02. Take GGCAGACCUCAACACAGCGUGGCAAAGGGGCUGUGGGUAGACUGCC: the self-cleavage was determined as 0. For the variant GGCAGAUCUCAACACAGCGUGGCAAUGUGGCUUUGGCAAGACUGCC, the self-cleavage was determined as 0.09. Consider GGCAGAUAUCAACACCGCGUGGCAAAGUGGCUGUGGCUAGACUGCC, for which the self-cleavage came to 0.04.

Regarding GGCAGACCUCAACACAGCGUGGCAAAGUGGCAGUGGCUAGACUUCC, the self-cleavage was 0.06. As to GGCAGAUGUCAACACAGCGUGGCAAAGUGACUGUGGCUAGACUGCC, the self-cleavage was determined as 0.37. Under GGCAGACCUCAACACAGCGUGGCAAAGUGGCUGAGGCUAGGCUGCC stands 0.01; under GGCAGACCCCAACACAGCGUGGCAAAGUUGCUGUGGCUAGACUGCC, 0.01. As for GGCAGACCCCAACCCAGCGUGGCAAGGUGGCCGUGGCUAGACUGCC, the self-cleavage was 0.07. Turning to GGCAGAUCUCAGCACAGCGUGGCAAAGUGGCUGUGGCUAGACUGCU, the self-cleavage turned out to be 0.03.

In the case of GGCAGAUCUCAACACUGCGUGGCAAAGUUGCUGUGGCUAGAGUGCC, the self-cleavage was 0.01. GGCAGACCUCAACACAGCGUUGCAAAGUGGCUGGGGCUAGACUGCC: the self-cleavage was 0.01. For GGCAGAUCUCAACACUGCCUGGCAAAGCGGCUGUGGCUAGACUGCC, the self-cleavage was 0.08. For GGCAGAUCUCUACAUAGCGCGCCAAAUUGGCGGUGGCUAGACUGCC, the self-cleavage stood at 0.05.
